Variants at the floor of the assay are shown more often than the library holds them.
B1: TPR 5TU (parent)
chain: GGAUCUUCUCGAUCUAACAAAAAAGACAAAUCUGCCACAAAGCUUGAGAGCAUCUUCGGAUGCAGAGGCGGCAGCCUUCGGUGGCGCGAUAGCGCCAACGUUCUCAACUAUGACACGCAAAACGCGUGCUCCGUUGAAUGGAGUUUAUCAUG

Variants of: B1
Assay: polymerase ribozyme fitness, log enrichment relative to wild type (log ratio); higher = more active; in vitro selection for triplet polymerase activity
How it was run: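 The heterodimeric triplet polymerase ribozyme's subunits were each mutagenized into PCR-built libraries and transcribed. Every library was selected once, in triplicate, by annealing with a biotinylated primer, the partner subunit and triplets, incubating frozen at −7 °C, gel-excising extended constructs, capturing on streptavidin beads and running RT-PCR. Input and output libraries were Illumina-sequenced, with genotypes kept only at ≥10 input reads and ≥1 read per output. Fitness, from inverse-variance-weighted replicate averages, is the base-2 logarithm of genotype enrichment over wild-type enrichment.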

| Variant | polymerase ribozyme fitness (log ratio) |
| --- | --- |
| A30C A37C A49G A52C U55A U82G C87U U104G | ≤ -4.2 |
| A29G A39G U82A G86U | ≤ -4.2 |
| A29U A64U A73G U77A G94U C99U U134C | ≤ -4.2 |
| A29G C32G A47U A49C A110G C114U | ≤ -4.2 |
| A30C C43A U56G A91G C149U | ≤ -4.2 |
| A30C C38U G50U G65U G80C | ≤ -4.2 |
| A29U A41U G71U | ≤ -4.2 |
| A30C A120G | ≤ -4.2 |
| A29U A49C G81U C96G A98C C116U G141C | ≤ -4.2 |
| A30G C85G A121U | ≤ -4.2 |
| A29G G81C U134A | ≤ -4.2 |
| A29U C57A G68U C118G U139C U148A | ≤ -4.2 |
| A29G C79A | ≤ -4.2 |
| A29U G67C C79A U82A G94U C95G C131G U145A | ≤ -4.2 |
| A30C U31G U82A G92C C103A U134G | ≤ -4.2 |
| A29U C69G C79U C95U U109G | ≤ -4.2 |
| A30C A47C G50A U53A G86A U139C G141U | ≤ -4.2 |
| A30C G94U G117U U135G G136A | ≤ -4.2 |
| A30G C36U A39C A47U A49U A60C G74A G80U C99A | ≤ -4.2 |
| A29G A41C G88U A91U | ≤ -4.2 |
| A30C G46U C95G U102G | ≤ -4.2 |

| Variant | polymerase ribozyme fitness (log ratio) |
| --- | --- |
| A30C U53A C75A C76G C114U | ≤ -4.2 |
| A30U A40C U55G G86U | ≤ -4.2 |
| A29U C38U G86A | ≤ -4.2 |
| A29U C72U C96U C129A A137C | ≤ -4.2 |
| A30C A60U A66G U82G C85U G94C C105U | ≤ -4.2 |
| A30G A91C C96U A122G G141C | ≤ -4.2 |
| A30G A40G G62A G68A C118U U146A | ≤ -4.2 |
| A29U G58C C96U U101G C118G C132G | ≤ -4.2 |
| A30G G68U G71C A97G | ≤ -4.2 |
| A29U U56A U102G | ≤ -4.2 |
| A29U A39G A52C G58C A91U U145C | ≤ -4.2 |
| A29U G140C | ≤ -4.2 |
| A29U C63G A64C C93A C105G A107G C108U G152A | ≤ -4.2 |
| A29G A73U A91G C99U A115U A137U | ≤ -4.2 |
| A30C A52C U56A C87U G92C C99U U130C | ≤ -4.2 |
| A30G A41G A47C C72G G86U A98U C125A | ≤ -4.2 |
| A29G C43G C79G U82A C87U A91U C95U C96A A97G | ≤ -4.2 |
| A29U A37U C75A C76A U77A C95G C125U G136A G141U | ≤ -4.2 |
| A30G G46A A49G A110U U127A | ≤ -4.2 |
| A29G A66U C87G U101A | ≤ -4.2 |
| A30U A40G G58C C79U G80U C85U G124U C125U | ≤ -4.2 |

| Variant | polymerase ribozyme fitness (log ratio) |
| --- | --- |
| A29C G84A | -4.17 |
| A29C G84C | ≤ -4.2 |
| A29G U61A G126C | ≤ -4.2 |
| A29U U56G A91G G92U G100U U101G C105A A107U | ≤ -4.2 |
| A29U G48C A60C G65A A66C C76U A91G | ≤ -4.2 |
| A30C A40C C87A A121U | ≤ -4.2 |
| A30C U55G C95A U135G U148A | -3.85 |
| A29U G62A G67A U102A C125U U146G | ≤ -4.2 |
| A29U G117U | ≤ -4.2 |
| A29G G48C U53A A60C A91U C95G U104C G126U U139A U151C | ≤ -4.2 |
| A29G A39C C51U C69A G128U G143U U151C | ≤ -4.2 |
| A29G C76G G84C C96U C99U A120U | ≤ -4.2 |
| A29U A40C C87G | ≤ -4.2 |
| A29G A60G G81C C87U C105G C129A | ≤ -4.2 |
| A29U A66U C69U A98G | ≤ -4.2 |
| A29C U53A G84C C93U A121G C125G | ≤ -4.2 |
| A29G A37C G58A C95U | ≤ -4.2 |
| A29U C85U | ≤ -4.2 |
| A30C C51U A52U U78G C85A C114G | ≤ -4.2 |
| A30G G74U C93A U102C U127G C129G U144G | ≤ -4.2 |
| A29U A49C A110G U144C | ≤ -4.2 |

| Variant | polymerase ribozyme fitness (log ratio) |
| --- | --- |
| A30C G50A C87A A110U U144C | ≤ -4.2 |
| A30G G70A U77C G86U G141A U146C C149U | ≤ -4.2 |
| A29U G126A | ≤ -4.2 |
| A29U C36A U55A C85G A98G | ≤ -4.2 |
| A30G C75U C87A C103G A122C C123U | ≤ -4.2 |
| A29G A52C C57U C93U | ≤ -4.2 |
| A30C A47G A49C C87U C95A | ≤ -4.2 |
| A29G A40U A47C C87A C93A U111A G124U | ≤ -4.2 |
| A29U A40G A60U A64G C93U A122U U127C C149U | ≤ -4.2 |
| A30C C36A U45A G50C C93U A119G A137C U145A | ≤ -4.2 |
| A29U U55A C87G C132G | ≤ -4.2 |
| A29U A47C C54U G84C G94A C96A G117C A121C G140U | ≤ -4.2 |
| A29G A39C A60G G83A C95U U130G G133C | ≤ -4.2 |
| A29U A52G G80C A91U U145C | ≤ -4.2 |
| A30U A39G A147C | ≤ -4.2 |
| A29G U53A C103A G143A U144G | ≤ -4.2 |
| A29U C35G G71C | ≤ -4.2 |
| A29U A41U A52U G81C | ≤ -4.2 |
| A30C U45A A91C C96A | ≤ -4.2 |
| A30G C43U G83U U109C A138G U145C C149A | ≤ -4.2 |
| A29G U82A C118U U144G | ≤ -4.2 |
